# Data: patent US8669255B2, “Substituted octahydropyrrolo[1,2-a]pyrazines as calcium channel blockers” (AbbVie Inc., priority 2011, dated 2014)
# Molecular target: human Cav2.2 (Homo sapiens, UniProt Q00975)
# Experiment: In vitro assessment of calcium channel activity using FLIPR (Ca2+ influx in IMR32 cells)
# Type: cell-based
# Conditions: IMR32 cells endogenously expressing human Cav2.2; 60 minute pre-incubation; 2 μM nifedipine; depolarized with 80 mM KCl; average of at least two runs unless marked (*)
row,SMILES,IC50 [nM]
1,"COc1c(F)ccc(C(=O)N2CCN3C[C@H](Oc4cnc(C5CC5)cn4)C[C@H]3C2)c1F [Example 135, [(7R,8aS)-7-[(5-cyclopropylpyrazin-2-yl)oxy]hexahydropyrrolo[1,2-a]-pyrazin-2(1H)-yl](2,4-difluoro-3-methoxyphenyl)methanone]",6460
2,"O=C(c1cccc2c1OC(F)(F)O2)N1CCN2C[C@H](Oc3cnc(C4CC4)cn3)C[C@H]2C1 [Example 136, [(7R,8aS)-7-[(5-cyclopropylpyrazin-2-yl)oxy]hexahydropyrrolo[1,2-a]-pyrazin-2(1H)-yl](2,2-difluoro-1,3-benzodioxol-4-yl)methanone]",1960
3,"O=C(c1cc(Cl)cc(OC(F)(F)F)c1)N1CCN2C[C@H](Oc3cnc(C4CC4)cn3)C[C@H]2C1 [Example 137, [3-chloro-5-(trifluoromethoxy)phenyl][(7R,8aS)-7-[(5-cyclopropylpyrazin-2-yl)oxy]hexahydropyrrolo[1,2-a]pyrazin-2(1H)-yl]methanone]",1380
4,"O=C(Cc1ccc(F)cc1)N1CCN2C[C@H](Oc3cnc(C4CC4)cn3)C[C@H]2C1 [Example 138, 1-[(7R,8aS)-7-[(5-cyclopropylpyrazin-2-yl)oxy]hexahydropyrrolo[1,2-a]pyrazin-2(1H)-yl]-2-(4-fluorophenyl)ethanone]",10600
5,"O=C(Cc1cccc(C(F)(F)F)c1Cl)N1CCN2C[C@H](Oc3cnc(C4CC4)cn3)C[C@H]2C1 [Example 139, 2-[2-chloro-3-(trifluoromethyl)phenyl]-1-[(7R,8aS)-7-[(5-cyclopropyl-pyrazin-2-yl)oxy]hexahydropyrrolo[1,2-a]pyrazin-2(1H)-yl]ethanone]",660
6,"O=C(Cc1cc(C(F)(F)F)ccc1F)N1CCN2C[C@H](Oc3cnc(C4CC4)cn3)C[C@H]2C1 [Example 140, 1-[(7R,8aS)-7-[(5-cyclopropylpyrazin-2-yl)oxy]hexahydropyrrolo[1,2-a]-pyrazin-2(1H)-yl]-2-[2-fluoro-5-(trifluoromethyl)phenyl]ethanone]",730
7,"O=C(Cc1cccc(C(F)(F)F)c1F)N1CCN2C[C@H](Oc3cnc(C4CC4)cn3)C[C@H]2C1 [Example 141, 1-[(7R,8aS)-7-[(5-cyclopropylpyrazin-2-yl)oxy]hexahydropyrrolo[1,2-a]-pyrazin-2(1H)-yl]-2-[2-fluoro-3-(trifluoromethyl)phenyl]ethanone]",450
8,"O=C(Cc1cc(F)cc(C(F)(F)F)c1)N1CCN2C[C@H](Oc3cnc(C4CC4)cn3)C[C@H]2C1 [Example 142, 1-[(7R,8aS)-7-[(5-cyclopropylpyrazin-2-yl)oxy]hexahydropyrrolo[1,2-a]-pyrazin-2(1H)-yl]-2-[3-fluoro-5-(trifluoromethyl)phenyl]ethanone]",630
9,"O=C(Cc1ccc(Cl)c(F)c1)N1CCN2C[C@H](Oc3cnc(C4CC4)cn3)C[C@H]2C1 [Example 143, 2-(4-chloro-3-fluorophenyl)-1-[(7R,8aS)-7-[(5-cyclopropylpyrazin-2-yl)-oxy]hexahydropyrrolo[1,2-a]pyrazin-2(1H)-yl]ethanone]",1590
10,"O=C(Cc1ccc(C(F)(F)F)cc1)N1CCN2C[C@H](Oc3cnc(C4CC4)cn3)C[C@H]2C1 [Example 144, 1-[(7R,8aS)-7-[(5-cyclopropylpyrazin-2-yl)oxy]hexahydropyrrolo[1,2-a]-pyrazin-2(1H)-yl]-2-[4-(trifluoromethyl)phenyl]ethanone]",720
11,"O=C(C(O)c1cccc(C(F)(F)F)c1)N1CCN2C[C@H](Oc3cnc(C4CC4)cn3)C[C@H]2C1 (stereo partly drawn) [Example 145, 1-[(7R,8aS)-7-[(5-cyclopropylpyrazin-2-yl)oxy]hexahydropyrrolo[1,2-a]-pyrazin-2(1H)-yl]-2-hydroxy-2-[3-(trifluoromethyl)phenyl]ethanone]",1220
12,"O=C(Cc1ccc(C(F)(F)F)c(F)c1)N1CCN2C[C@H](Oc3cnc(C4CC4)cn3)C[C@H]2C1 [Example 146, 1-[(7R,8aS)-7-[(5-cyclopropylpyrazin-2-yl)oxy]hexahydropyrrolo[1,2-a]pyrazin-2(1H)-yl]-2-[3-fluoro-4-(trifluoromethyl)phenyl]ethanone]",740
